Measured values reported in PubChem BioAssay AID588795 (National Center for Advancing Translational Sciences (NCATS), 2011).
Among all 390,000 compounds or so, about 1,400 (0.36%) were called active. Inconclusive means that the source gave no clear call. Such entries were picked first, then a sample of the others. Calls come from the whole dose curve; as a rule, active = well fitted inhibition curve with a large enough effect; inconclusive = small, poorly fitted or top-dose-only effect; inactive = no such curve, though single readings can be large or run the other way. A potency beside an inconclusive call is a rough fit, not a confirmed value.

biological target: Flap endonuclease 1 (Homo sapiens) (UniProt P39748); test: qHTS Assay for the Inhibitors of Human Flap endonuclease 1 (FEN1).; note: nearly all actives have a fitted effect of over 65% in size; details: Recombinant FEN1 flap cleavage, fluorescence, 15 min; series mostly up to 114 µM; activity change, negative = inhibition: at the top concentration
UniProt P39748, sequence (P39748 whole entry, looked up): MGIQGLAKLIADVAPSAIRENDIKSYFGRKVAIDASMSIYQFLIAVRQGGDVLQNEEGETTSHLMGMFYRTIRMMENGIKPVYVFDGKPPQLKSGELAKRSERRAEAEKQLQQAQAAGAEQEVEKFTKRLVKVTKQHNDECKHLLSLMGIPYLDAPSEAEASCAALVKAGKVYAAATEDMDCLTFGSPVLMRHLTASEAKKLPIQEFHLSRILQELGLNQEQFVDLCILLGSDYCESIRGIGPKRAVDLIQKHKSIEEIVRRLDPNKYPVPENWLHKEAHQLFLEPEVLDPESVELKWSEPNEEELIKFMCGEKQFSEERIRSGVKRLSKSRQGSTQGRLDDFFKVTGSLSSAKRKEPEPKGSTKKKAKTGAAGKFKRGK
In short: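 FEN1 at 10 nM, compound pretreatment for 15 min (room temperature), 50 nM final substrate to initiate; endpoint reads at 0 and 15 min; DMSO-only plates used as vehicle background.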
% is set by controls: 0 for no effect and ±100 for the full control effect; potency is the fitted concentration of half-maximal effect; tags give direction and shape of the fitted curve.

SMILES | Potency | activity change, negative = inhibition
CCOC(=O)[C@@H]1[C@H]2COc3cc(OC)ccc3[C@H]2N2C(=O)N(c3ccc(F)cc3)C(=O)[C@@]12C | inconclusive: 89.1 µM [inhibitor, partial curve, poor fit] | –
COc1ccc(CNC(=O)c2sc(=S)n(-c3ccccc3)c2N)cc1 | – | inactive: 1.43%
Cc1cccc(-c2onc3ccc(C4(C)OCCO4)cc23)c1 | inconclusive: 5.62 µM [inhibitor, partial curve, poor fit] | –
CCCCCCCCCc1nc2sc3c(c2c(=O)n1NC(=O)c1ccccc1[N+](=O)[O-])CC(C)(C)OC3 | inconclusive: 22.4 µM [inhibitor, partial curve, poor fit] | –
O=C(NC(C(=O)N/N=C/c1cccnc1)c1n[nH]c(=O)c2ccccc12)c1ccccc1 (stereo not given) | – | inactive: -5.57%
Cc1[nH]c2ccccc2c1/C=C/c1cnc2ccccc2n1 | inconclusive: 39.8 µM [inhibitor, partial curve] | –
O=C(N/N=C/c1cccnc1)c1cc2c(ccc3ccccc32)o1 | inconclusive: 89.1 µM [inhibitor, partial curve, poor fit] | –
COC(=O)[C@@H]1[C@H]2SC(C)(C)[C@H](C(=O)OC)N2C(=O)N1Cc1cc2ccccc2n1S(=O)(=O)c1ccccc1 | – | inactive: -21.7%
Cc1ccccc1CSc1n[nH]c(NS(=O)(=O)c2ccccc2)n1 | inconclusive: 89.1 µM [inhibitor, partial curve, poor fit] | –
COc1ccc(NC(C)=O)cc1NC(=O)CSc1nc2ncccc2[nH]1 | – | inactive: -8.65%
O=C(Nc1nncs1)c1cc2c(s1)CCC2 | – | inactive: 17.1%
Oc1ccc(/C=N/Nc2nc(-c3ccccc3F)nc3ccccc23)c(O)c1 | inconclusive: 50.1 µM [inhibitor, partial curve] | –
c1ccc(N=c2nc(-c3ccccc3)n(-c3ccccc3)s2)cc1 | – | inactive: -6.81%
Cn1c(N)c(C(=O)COC(=O)CNC(=O)c2ccccc2)c(=O)n(C)c1=O | – | inactive: 8.72%
CCOC(=O)N1CCN(C(=S)Nc2cc(S(=O)(=O)N3CCOCC3)ccc2Cl)CC1 | inconclusive: 79.4 µM [inhibitor, partial curve] | –
FC(F)Sc1nc(-c2ccccc2)c(-c2ccccc2)n1C(F)F | inconclusive: 89.1 µM [inhibitor, partial curve, poor fit] | –
O=c1c2ccccc2sn1-c1ccc(Cl)c(S(=O)(=O)N2CCOCC2)c1 | inconclusive: 89.1 µM [inhibitor, single point] | –
Cc1cc(OC(=O)c2ccccc2Cl)cc(=O)n1C | – | inactive: -7.26%
Cc1cccc(C(=O)Nc2sc(-c3ccccc3)cc2C(=O)O)c1 | inconclusive: 89.1 µM [inhibitor, single point] | –
CCOc1ccc(C2C=C(c3ccc(C)cc3)Nc3nnnn32)cc1 (stereo not given) | inconclusive: 79.4 µM [inhibitor, partial curve, poor fit] | –
O=[N+]([O-])c1ccc(/C=N/NS(=O)(=O)c2ccc(Cl)cc2)o1 | inconclusive: 56.2 µM [inhibitor, partial curve, poor fit] | –
NC(=S)N/N=C/c1ccccc1OC(=O)/C=C/c1ccccc1 | inconclusive: 50.1 µM [inhibitor, partial curve, poor fit] | –

SMILES | Potency | activity change, negative = inhibition
COc1ccc(OC)c(Nc2nc(NCCCN(C)C)nc(N)c2[N+](=O)[O-])c1 | active: 12.6 µM | –
CC(=O)N1CCc2cc(NC(=O)c3ccc(C)cc3)ccc21 | inconclusive: 39.8 µM [inhibitor, single point] | –
O=C(O)c1ccc(COc2ccccc2/C=C2\NC(=O)N(Cc3ccc(F)cc3)C2=O)cc1 | inconclusive: 56.2 µM [inhibitor, partial curve, poor fit] | –
Cc1ccc(C(=O)N2CCCC(N3CCN(c4cccc(C(F)(F)F)c4)CC3)C2)s1 (stereo not given) | inconclusive: 70.8 µM [inhibitor, partial curve, poor fit] | –
O=C(O)/C=C\C(=O)Nc1ccc(N2CCN(c3ccc(Cl)c(Cl)c3)CC2)cc1 | – | inactive: -11.4%
Cc1ccc(CNc2cc(C)nc3nc(-c4cccc(C)c4)nn23)cc1 | inconclusive: 89.1 µM [inhibitor, single point] | –
Cc1ccc(OCCCSc2nc(-c3ccc(C(C)(C)C)cc3)nc3cc(=O)[nH]n23)cc1C | inconclusive: 28.2 µM [inhibitor, partial curve, poor fit] | –
CCCc1nn(C)c2c(=O)[nH]c(-c3ccccc3OCC)nc12 | – | inactive: 4.61%
CC1CCN(C(=O)c2cccc(NC(=O)c3nsc4ccccc34)c2)CC1 | – | inactive: -31.5%
c1nc(NCc2ccc3c(c2)OCO3)c2cc(-c3ccc4c(c3)OCCO4)ccc2n1 | inconclusive: 22.4 µM [inhibitor, partial curve, poor fit] | –
O=C(CSc1nc2ccccc2c2nc3ccccc3n12)NCc1ccco1 | inconclusive: 31.6 µM [inhibitor, partial curve, poor fit] | –
COc1ccccc1NC(=O)C(C)OC(=O)CCC1CCCCC1 (stereo not given) | inconclusive: 89.1 µM [inhibitor, partial curve, poor fit] | –
COc1ccccc1-n1cnc2c(c1=O)c1nc3ccccc3nc1n2-c1ccc(C)cc1 | inconclusive: 89.1 µM [inhibitor, partial curve, poor fit] | –
Nc1ccc2nc3c(=O)[nH]c(=S)[nH]c3nc2c1 | inconclusive: 2.51 µM [inhibitor, full curve, poor fit] | –
Cc1ccc(OCCC(=O)O)cc1 | – | inactive: -7.36%
COc1cccc(NC(=O)CN(C)CC(=O)NCc2ccco2)c1 | – | inactive: -12.7%
COc1cc2nc(N3CCCN(C)CC3)nc(NC3CC3)c2cc1OC | inconclusive: 70.8 µM [inhibitor, single point] | –
COc1ccc(S(=O)(=O)Nc2ccc(O)c3ccccc23)cc1 | inconclusive: 89.1 µM [inhibitor, partial curve, poor fit] | –
COCCOC(=O)/C(=C\c1cc(C(C)(C)C)c(O)c(C(C)(C)C)c1)C(C)=O | inconclusive: 56.2 µM [inhibitor, partial curve, poor fit] | –
Oc1cc(-c2cccnc2)cc2cccnc12 | – | inactive: -5%
COc1cc(CCc2ccccc2)c(C(=O)O)c(O)c1CC=C(C)C | inconclusive: 20 µM [inhibitor, partial curve, poor fit] | –
O=C(CSc1nc2nccnc2c(=O)n1CCc1c[nH]c2ccccc12)Nc1ccc(F)cc1 | – | inactive: -10.6%

SMILES | Potency | activity change, negative = inhibition
COC(=O)c1[nH]c2ccc(Br)cc2c1NC(=O)CN1CCCCC1CCO (stereo not given) | inconclusive: 89.1 µM [inhibitor, single point] | –
COC(=O)C(Cc1c[nH]c2ccccc12)NC(=O)c1cccs1 (stereo not given) | inconclusive: 89.1 µM [inhibitor, single point] | –
COc1ccc(C2c3c(ncn(CCCN4CCOCC4)c3=N)Oc3ccc4ccccc4c32)cc1OC (stereo not given) | inconclusive: 44.7 µM [inhibitor, partial curve] | –
Cc1ccc(NC2C(=O)NC(=O)NC2=O)cc1 | – | inactive: -0.585%
COc1ccc2c(c1)cc(C(=O)N/N=C/c1c(O)c(C(=O)O)cc3ccccc13)n2C | inconclusive: 28.2 µM [inhibitor, full curve] | –
O=C(CSCC(=O)NCc1ccco1)NCc1ccco1 | – | inactive: -3.93%
Cc1ccc(NC(=O)c2ccc(CNS(=O)(=O)c3ccc4c(c3)C(C)(C)C(=O)N4C)cc2)cc1F | – | inactive: 10.1%
O=C(O)c1cc(N=Nc2c(O)ccc3ccccc23)cc(C(=O)O)c1 | inconclusive: 25.1 µM [inhibitor, partial curve, poor fit] | –
COc1ccc(/C=C\c2nccc3c2[nH]c2ccccc23)cc1 | inconclusive: 44.7 µM [inhibitor, partial curve, poor fit] | –
CN1CCN(c2nc(Nc3ccc(F)cc3)nc(Nc3ccc(F)cc3)n2)CC1 | inconclusive: 44.7 µM [inhibitor, partial curve] | –
COc1cc(/C=C2\C(=N)N3N=C(S(C)(=O)=O)SC3=NC2=O)ccc1OC(=O)c1ccco1 | inconclusive: 35.5 µM [inhibitor, partial curve] | –
COc1ccc(C)cc1NC(=O)C(OC(=O)c1ccc([N+](=O)[O-])o1)c1ccccc1 (stereo not given) | inconclusive: 35.5 µM [inhibitor, single point] | –
Cn1c2ccccc2c2ccc3c(c21)C(=O)C=CC3=O | inconclusive: 50.1 µM [inhibitor, partial curve] | –
CC(=O)N(C(C)=O)c1nc2nc(C)cc(C)n2n1 | inconclusive: 56.2 µM [inhibitor, partial curve, poor fit] | –
Cc1ccc2c(c1)-c1nc3ccccc3cc1C2=NC1CCCCC1 | inconclusive: 50.1 µM [inhibitor, partial curve] | –
CC(=O)N(C1=C(Cl)C(=O)c2ccccc2C1=O)c1ccc(C(=O)O)cc1 | inconclusive: 89.1 µM [inhibitor, single point] | –
O=C(O)c1c[nH]c2ccc([N+](=O)[O-])cc2c1=O | inconclusive: 89.1 µM [inhibitor, partial curve, poor fit] | –
CCN1CCN(CCCNC(=O)Cn2c(-c3cccs3)cc3cc(F)ccc32)CC1 | – | inactive: 4.43%
Cc1c2c(=O)n(-c3nc4ccccc4s3)nc-2cc(O)n1Cc1ccccc1 | inconclusive: 50.1 µM [inhibitor, partial curve, poor fit] | –
C=C(C)COc1ccc(-c2n[nH]c(C)c2-c2ccccc2)c(O)c1 | inconclusive: 50.1 µM [inhibitor, partial curve, poor fit] | –
CC(=O)c1ccc(N2CCN(C(=O)COc3ccc4c(c3)CCC4)CC2)cc1 | – | inactive: -17.5%
